Test results published in PubChem BioAssay AID485344 (National Center for Advancing Translational Sciences (NCATS), 2010).
In all, about 340,000 compounds went through this assay and about 6,900 (2%) were called active. Cut-off read from the data, not from the text of the source: active = inhibition above about 30%; inactive = below that, where a call was filed. The entries are a selection whose mix differs from that of the whole data set. The source gives no active or inactive call for entries shown without one.

molecular target: D(2) dopamine receptor (Homo sapiens) (UniProt P14416); assay: HTS Assay for Allosteric Antagonists of the Human D2 Dopamine Receptor: Primary Screen for Antagonists; conditions: HEK293 TREx D2 cells, calcium flux, dopamine EC80; at 10 µM; stronger effect = higher value; note: 0% is about no effect
Outline: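 Dopamine at EC80 is the agonist stimulus; test compounds precede it by 180 s. Calcium flux read kinetically in a force-coupled, inducible HEK293 T-REx D2 cell line.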

UniProt P14416, sequence (P14416 whole entry, looked up): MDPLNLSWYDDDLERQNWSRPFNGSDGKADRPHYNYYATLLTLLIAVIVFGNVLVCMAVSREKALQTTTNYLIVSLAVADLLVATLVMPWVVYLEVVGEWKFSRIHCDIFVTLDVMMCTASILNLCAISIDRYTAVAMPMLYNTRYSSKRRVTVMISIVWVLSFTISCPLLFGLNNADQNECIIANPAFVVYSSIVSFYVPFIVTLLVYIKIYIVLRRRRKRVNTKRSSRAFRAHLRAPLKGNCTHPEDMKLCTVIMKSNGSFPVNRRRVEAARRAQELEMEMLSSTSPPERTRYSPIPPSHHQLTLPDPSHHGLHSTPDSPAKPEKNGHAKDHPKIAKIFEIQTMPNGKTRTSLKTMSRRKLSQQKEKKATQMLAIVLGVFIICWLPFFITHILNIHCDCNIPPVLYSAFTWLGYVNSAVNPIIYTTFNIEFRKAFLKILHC

Compound | inhibition
COc1ccc(/C=C(\C#N)c2nc(-c3cc4ccccc4oc3=O)cs2)cc1OC | 6.96%
COc1ccccc1N1CCN(C(=O)c2oc3ccccc3c2N)CC1 | 8.81%
Cc1ccc(-c2onc(C)c2C)cc1S(=O)(=O)NC1CCC(C)CC1 (stereo unspecified) | 0.439%
CCOc1cc(C2CC(=O)Nc3c2c(C)nn3-c2nc(C)cc(C)n2)ccc1O (stereo unspecified) | 2.87%
COC(=O)c1cccnc1-n1c(=O)c2cccnc2n(CC(=O)Nc2cccc(C(F)(F)F)c2)c1=O | 13.2%
Cc1cc2ccc(C)c(C)c2nc1SCC(=O)c1cccs1 | active: 60.4%
Cc1cccc(Cc2c(C)nc3nc(SCC(=O)NC4CCCCC4)nn3c2C)c1 | 8.42%
Fc1ccc(-c2noc3ncnc(NCc4cccc(Cl)c4)c23)cc1 | 3.16%
CSc1cccc(NS(=O)(=O)c2ccc3[nH]cc(C(=O)N4CCCCCC4)c(=O)c3c2)c1 | -0.576%
COc1ccc(/C=C\c2onc(C)c2S(=O)(=O)N2CCC(C(=O)Nc3ccc(C)c(F)c3)CC2)cc1 | 8.71%
CCOC(=O)c1nnc2c(-c3ccc(F)cc3)c(C)nn2c1N | 13.2%
Cc1ccc(N2CC(NC(=O)Cc3ccc(F)cc3)CC2=O)cc1C (stereo unspecified) | -8.21%
COc1ccccc1CNC(=O)c1cnn(-c2ccc(F)cc2F)c1C1CCN(C(=O)OC(C)(C)C)CC1 | 1.57%
COCCN1CN=C(NS(=O)(=O)c2ccc(C)cc2)NC1 | -20.9%
CCN(CC)c1ccc(C2C(C(N)=O)=C(C)Nc3nc(SCc4ccccc4)nn32)cc1 (stereo unspecified) | 9.48%
COc1cccc(CNC(=O)C2CCCN(S(=O)(=O)c3cn(C)cn3)C2)c1 (stereo unspecified) | -21.3%
Cc1ccc(-n2c(=O)c3cccnc3n2CC(=O)Nc2ccccc2C(F)(F)F)cc1C | -0.474%
COc1ccccc1OC(C)C(=O)N1CCN(CCc2ccccn2)CC1 (stereo unspecified) | 3.73%
CC[C@H](C)NC(=O)CCCc1nnc2n(CCC(C)C)c(=O)c3sccc3n12 | 19%
Cc1ccc(C)c(NC(=O)C(NS(=O)(=O)c2ccc3c(c2)CCC(=O)N3)c2ccccc2)c1 (stereo unspecified) | -19.6%
Cc1ccc(CNC(=O)C2CCN(S(=O)(=O)c3c(C)noc3/C=C/c3ccccc3F)CC2)o1 | 0.564%

Compound | inhibition
COc1ccc(-c2cn3c(n2)sc2cc(C(=O)NC4CCCCC4)ccc23)cc1 | 15.2%
Cc1ccnc(NC(c2cc(C)ccc2O)c2ccc3cccnc3c2O)c1 (stereo unspecified) | 11.8%
COc1ccccc1N1CCN(Cc2cc(COC(C)C)c3cccnc3c2O)CC1 | -9.29%
CCOC(=O)C1CCCN(C(=O)Cn2nc(C)n3c(cc4c(OC)cccc43)c2=O)C1 (stereo unspecified) | -7.73%
CCC(C)n1c(=N)c(C(=O)NC2CCCCC2)cc2c(=O)n3cc(C)ccc3nc21 (stereo unspecified) | -27.5%
CCCc1cc(=O)oc2c3c(cc(OCC(=O)N[C@@H](C)C(=O)O)c12)OC(C)(C)CC3 | active: 32.9%
Cc1cccc(C(=O)NCc2cn3cccc(C)c3n2)c1 | 2.77%
CC(C)c1ccc(Cc2cnc(NC(=O)c3ccc4c(c3)CC(c3ccccc3)OC4=O)s2)cc1 (stereo unspecified) | 13.1%
O=c1cc(N2CCN(c3ccc(F)cc3)CC2)[nH]c(=O)n1-c1cccc(Br)c1 | -14.8%
COc1ccc(N(C(=O)c2cc(OC)c(OC)c(OC)c2)S(=O)(=O)c2ccc(C)cc2)cc1 | 7.56%
Cn1cc(-c2cc3n(n2)CCC(=O)N3CC(=O)NCc2ccccc2)c2ccccc21 | -12.3%
CN(C)C1(CNC(=O)COc2cccc(Cl)c2)CCCCC1 | -4.2%
Cc1ccccc1C(=O)Nc1ccc2nc(SCC(=O)N(C)c3ccccc3)sc2c1 | -18.2%
Cc1cccc(Cn2c(SCc3ccc(C(=O)NCc4cccs4)cc3)nc3ccncc32)c1 | -1.25%
Cc1ccc(Nc2c(-c3cccc(Cl)c3)nc3cccc(C)n23)cc1 | -0.194%
Cc1ccc(NC(=O)CSc2nc(=O)n(CCN3CCOCC3)c3c2CCC3)cc1Cl | 9.65%
CCC(=O)N1c2ccccc2CC1C(=O)NCCN1CCN(c2ccccc2F)CC1 (stereo unspecified) | 18.9%
Cn1c(=O)nc2n(-c3ccc(Br)cc3)c3cccc(Cl)c3cc-2c1=O | 3.17%
CCCc1noc(-c2ccc(NCc3ccccc3OC)c([N+](=O)[O-])c2)n1 | 18.8%
Cc1ccc(C)c(N2CCN(S(=O)(=O)c3ccc(C4CCCCC4)cc3)CC2)c1 | 4.12%
CC(C)(C)OC(=O)N1CCC(c2c(C(=O)NCc3ccccn3)cnn2-c2ccccc2Cl)CC1 | 7.22%

Compound | inhibition
Cc1[nH]c2ccccc2c1SCCNC(=O)c1ccc(F)cc1 | -22.7%
CC(C)c1ccc(NC(=O)CSC2=Nc3ccccc3C3=NC(CC(=O)NCCc4ccccc4)C(=O)N23)cc1 (stereo unspecified) | -23.3%
COc1ccc(Cl)cc1NC(=O)c1c(NCc2cccs2)sc2c1CCC(C)C2 (stereo unspecified) | -0.67%
CCOc1ccccc1NC(=O)CSc1nc(-c2cccs2)cc(C(F)(F)F)n1 | 8.37%
O=C(Nc1cc(-c2nc3ccccc3o2)ccc1Cl)c1cc([N+](=O)[O-])ccc1N1CCOCC1 | 6.57%
COc1cccc(CNC(=O)C2CCN(c3ncnc4c3nc3n4CCCCC3)CC2)c1 | -0.192%
Cc1cc(-c2ccc(C)c(S(=O)(=O)NCCc3ccccc3)c2)on1 | 8.51%
COc1ccc2c(c1)c(CC(=O)Nc1cc(C)c(OC)c(C)c1)c(C)n2C(=O)c1ccc(Cl)cc1 | -3.21%
CC(=O)c1ccc(OC(=O)c2c(-c3ccccc3Cl)noc2C)cc1 | 0.182%
Cn1nc(C(=O)Nc2cccc(C(F)(F)F)c2)c2c1-c1ccccc1S(=O)(=O)C2 | 0.874%
O=C(COc1ccc(Cl)cc1Cl)Nc1ccc(C(=O)OC2CCCCC2)cc1 | -0.481%
CCCN(CCC)S(=O)(=O)c1ccc(C(=O)N2CCn3c4c(c5cc(C)ccc53)CCCC42)cc1 (stereo unspecified) | 3.12%
CCOc1ccc(NS(=O)(=O)c2ccc3[nH]cc(C(=O)NCCc4ccccc4)c(=O)c3c2)cc1 | 1.39%
COc1ccccc1Nc1ncnc2c1nc1n2CCCCC1 | 14.7%
Cn1c(SCC(=O)Nc2ccccc2F)nc2c([nH]c3ccccc32)c1=O | -9.49%
CCc1ccccc1NC(=O)CSc1nccn1C | 3.11%
CCOC(=O)c1cc(OC(=O)c2cc(Cl)ccc2OC)n(-c2ccccc2)n1 | 9.1%
CCC(C(=O)O)N1C(=O)c2ccccc2C1=O (stereo unspecified) | active: 37%
CCc1ccc(S(=O)(=O)c2nnn3c2nc(NCCC(C)C)c2cc(Cl)ccc23)cc1 | -9.87%
